{"source": "the supplement of paper PMC11417369", "note": "Some of the results follow.", "data": [{"tested_on": "PF3D7_0420300 AP2 domain 1 (GST-tagged)", "assay": "gcPBM binding intensity (ln(normalized median fluorescence intensity)); higher = stronger DNA binding", "method_in_brief": "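DNA-binding domains from P. falciparum, fused to GST and produced in E. coli, were put on an Agilent 4 × 180k double-stranded probe array for 1 h in 1× PBS holding 1% milk, 0.2 mg/ml BSA, 0.5% salmon testes DNA and 0.03% Triton X-100. Probes were primer-extended, 36 bp long and drawn from intergenic genomic regions, with negative controls included. After Alexa488 anti-GST antibody detection and a 488 nm scan, binding intensity was set as the highest Masliner-normalised natural-log median intensity across replicate spots of either probe orientation.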", "values": [{"sequence": "TTTTTTTTTTTTTTTTGTACATATATATAAAAAATA [XGTACX_site2772]", "gcPBM binding intensity (ln)": 8.49}, {"sequence": "TAATATTACATTTATTGTACTTTGTTTTTATTTTAT [XGTACX_site1605]", "gcPBM binding intensity (ln)": 9.48}, {"sequence": "CCCACAATGGTTTATATACACACTGTTGCAAATTCT [CACACA_site3066]", "gcPBM binding intensity (ln)": 9.45}, {"sequence": "ATTGAAAAAATACAATGTACATAGTAATACAAAGAA [XGTACX_site4142]", "gcPBM binding intensity (ln)": 9.56}, {"sequence": "TAATACTTAATGAACACATGCACATATACATAGTAT [TGCATGCA_site496]", "gcPBM binding intensity (ln)": 9.36}, {"sequence": "TGTTTCTAAGAATTTACACACAAAATATTTCTACAT [CACACA_site7846]", "gcPBM binding intensity (ln)": 9.55}, {"sequence": "AAAAAAAAAAATTGCACACAAAAAAAAAAAAAAAAA [CACACA_site2073]", "gcPBM binding intensity (ln)": 8.92}, {"sequence": "TTAAAAATTAAAAGTAGTACATATAATATAAACATT [XGTACX_site424]", "gcPBM binding intensity (ln)": 9.31}, {"sequence": "ATACACGTTTTACAATGTACAGAAAGTATACATAAT [XGTACX_site4585]", "gcPBM binding intensity (ln)": 9.36}, {"sequence": "TTTAATCAACAAAATCTACACACTAATATGAAATAT [CACACA_site9250]", "gcPBM binding intensity (ln)": 9.36}, {"sequence": "TATTATATATATAAATGTACATATTATTTTTCTTTT [XGTACX_site8670]", "gcPBM binding intensity (ln)": 9.24}, {"sequence": "GTATTTTTTTTCTTTTGTACATATATATAAAGAATA [XGTACX_site4569]", "gcPBM binding intensity (ln)": 9.27}, {"sequence": "AAGAATTTTCGATTTGCACACATTTGTAAAATAAAA [CACACA_site2354]", "gcPBM binding intensity (ln)": 9.19}, {"sequence": "CATATCAAAAAAAAATGTACACGTATATACAATACA [XGTACX_site2660]", "gcPBM binding intensity (ln)": 9.38}, {"sequence": "TTTTAAAATAAAAAAATAAAAAAAGGGGAAAAAAAA [CACACA_negctrl_site847]", "gcPBM binding intensity (ln)": 9.39}, {"sequence": "ATATACTTATATATTGCACACATCTAATATTTTGAA [CACACA_site3165]", "gcPBM binding intensity (ln)": 9.42}, {"sequence": "TATAATATGTTTGATGGTACACGTAAACACCTTGCA [XGTACX_site1643]", "gcPBM binding intensity (ln)": 9.15}, {"sequence": "ATAACTAAATTATATTGTACAAAATAATTATATATT [XGTACX_site1188]", "gcPBM binding intensity (ln)": 9.19}, {"sequence": "TTCATTAAAACGAATACACACATAAATATATAAAAG [CACACA_site4824]", "gcPBM binding intensity (ln)": 9.62}, {"sequence": "AAATATATATATATTACACACTATATATTTATTTAT [CACACA_site681]", "gcPBM binding intensity (ln)": 9.42}, {"sequence": "CAACAAAAGAAACACACACACACAAACACAAAAAAA [CACACA_site3389]", "gcPBM binding intensity (ln)": 10}, {"sequence": "GGATATATTATATGTACACACATATATAACGGATAT [CACACA_site1309]", "gcPBM binding intensity (ln)": 9.69}, {"sequence": "TGTATACCTTAATATACACACATACATATATATATA [CACACA_site8370]", "gcPBM binding intensity (ln)": 9.46}, {"sequence": "ATATACATATTTTTGACACACATTAGGAAAATATAT [CACACA_site4123]", "gcPBM binding intensity (ln)": 9.39}, {"sequence": "ATGTAATAAATACTACGTACATATATATGTGTTAAT [XGTACX_site3265]", "gcPBM binding intensity (ln)": 9.36}, {"sequence": "ATATATAAATATAGCATACACACAAAAAAATAAAAT [CACACA_site2332]", "gcPBM binding intensity (ln)": 10}, {"sequence": "TATTATTTATATGATACACACGTACATATACACATA [CACACA_site9275]", "gcPBM binding intensity (ln)": 9.37}, {"sequence": "ATGTATCGTAACAAATGTACAAGAGGATGTTTAGAC [XGTACX_site3355]", "gcPBM binding intensity (ln)": 9.57}, {"sequence": "GTATTTATATGATTAACACACATATGTGGATTAATA [CACACA_site1315]", "gcPBM binding intensity (ln)": 9.35}, {"sequence": "GATATATTTTGTTATGTAGATGTTGGTAGGAATTTT [GTGCAC_negctrl_site485]", "gcPBM binding intensity (ln)": 9.39}, {"sequence": "TATATAACTACAAGAACACACATATAAATATAAATA [CACACA_site7210]", "gcPBM binding intensity (ln)": 9.73}, {"sequence": "GTAATTAAGATATATACACACAAAGGCTATTAAATA [CACACA_site6604]", "gcPBM binding intensity (ln)": 9.67}, {"sequence": "TATTGATAAAAAATATGTACATATATACATATATAT [XGTACX_site3821]", "gcPBM binding intensity (ln)": 9.18}, {"sequence": "ATATATATATATATATGTACGTAAACAAAAATTTAT [XGTACX_site6780]", "gcPBM binding intensity (ln)": 9.41}, {"sequence": "ACAAATAAAAAAATTACACACATATATAATATATAT [CACACA_site1361]", "gcPBM binding intensity (ln)": 9.68}, {"sequence": "AGTAGTCTGGAGAAAAGTACACAGTATCTGGTAACA [XGTACX_site2034]", "gcPBM binding intensity (ln)": 9.1}, {"sequence": "AAAAATAAAATAAAATAAAATAAAAATAAAGAAAAA [CACACA_negctrl_site808]", "gcPBM binding intensity (ln)": 9.51}, {"sequence": "TTAATTCTATACATAAATTATGTTTACATAAAGAAT [GTGCAC_negctrl_site246]", "gcPBM binding intensity (ln)": 8.89}, {"sequence": "TATTAACTCAATAGCGCACACTTTTAATATTTTATA [CACACA_site4973]", "gcPBM binding intensity (ln)": 9.35}, {"sequence": "ATTTGACACGTATATGCACACACCCGTAAGTGTCCA [CACACA_site8891]", "gcPBM binding intensity (ln)": 9.6}, {"sequence": "ATGTGATAATTTAGGAGTACTGTCATAAGCATTTCT [XGTACX_site3091]", "gcPBM binding intensity (ln)": 9.24}, {"sequence": "TTATAAATTTTTAATAGTACATAAAATTAAAGGTAA [XGTACX_site760]", "gcPBM binding intensity (ln)": 8.83}, {"sequence": "TCATAAAAAGGAATCTTTAAGATATTTTATAAGCTC [XGTACX_negctrl_site18]", "gcPBM binding intensity (ln)": 8.83}, {"sequence": "TTTCTTTATTTATAATAATTTTTTATTAAAAATAGA [CACACA_negctrl_site1610]", "gcPBM binding intensity (ln)": 8.59}, {"sequence": "AATAAATGTCTGTTAATGCACACGATATGTCTATAT [CACACA_site2351]", "gcPBM binding intensity (ln)": 9.36}, {"sequence": "AGTGCATAATATTTATGTACGTATCACATATATTTT [XGTACX_site5166]", "gcPBM binding intensity (ln)": 9.27}, {"sequence": "TATTTGGGTATTTTTACACACATTAATATATATATA [CACACA_site9114]", "gcPBM binding intensity (ln)": 9.49}, {"sequence": "ATAATGGAAAAAAAATATAATAATACGAAATAGGAA [TGCATGCA_negctrl_site64]", "gcPBM binding intensity (ln)": 9.69}, {"sequence": "AAAGATAATAATATGCGTACATAAAAATATATGATA [XGTACX_site6884]", "gcPBM binding intensity (ln)": 9.35}, {"sequence": "AGTTAAATGAATCAATACATAAATATGTATATATAT [TGCATGCA_negctrl_site539]", "gcPBM binding intensity (ln)": 9.16}, {"sequence": "TGAATCAATTGTTGCTGTACATAAGGTATACAATAA [XGTACX_site5127]", "gcPBM binding intensity (ln)": 9.1}, {"sequence": "TTTTTTTAATAAATTTATAACAATATGATAGGTGAC [CACACA_negctrl_site1783]", "gcPBM binding intensity (ln)": 9.33}, {"sequence": "TAATTACCATATGGTACACACATATATATCTGTATA [CACACA_site5849]", "gcPBM binding intensity (ln)": 9.59}, {"sequence": "AATAATATCTGAAAATGTACATTTTATTATAAACAT [XGTACX_site8441]", "gcPBM binding intensity (ln)": 9.32}, {"sequence": "AAGAAGAGTTATTGTAGTACATTTTTAAATGTAATA [XGTACX_site7664]", "gcPBM binding intensity (ln)": 9.04}, {"sequence": "AAGAATTATAGAAACACACATACATACAGACATACA [CACACA_site1943]", "gcPBM binding intensity (ln)": 9.82}]}]}
